# From the RNAGym collection of RNA variant scans (doi:10.7554/elife.90254)
# Read counts are not given, so values of variants with three or more changes are uncertain.
# B1: LINE1-mini (parent)
# chain: GGCAGAGCUCAACACAGCGUGGCAAAGUGGCUGUGGCUAGACUGCC
# Variants of: B1
# Test: self-cleavage, relative activity (ratio to wild type); higher = more cleavage; in vitro, sequencing; the parent is a self-cleaving ribozyme
row,Variant,self-cleavage
1,GGAAGAGGUCAACACAACGUGGCAAAGUGGCUGUGGCUAGACUGCC [C3A C8G G17A],0.19
2,GGAAGAGCUUAACACAGCGUGGCAAAGUGGCUGUUGCUAGACUGCC [C3A C10U G35U],0.13
3,GGAAGAGAUCAACAGAGCUUGGCAAAGUGGCUGUGGCUAGACUGCC [C3A C8A C15G G19U],0.09
4,GGAAGAGCUCCACACAGCGUCGCAAAGUGGCUGUGGCUAGACUGCC [C3A A11C G21C],0.05
5,GGAAGAGCUCUACACAGCGUGGCAACGUGGCUGUGGCUAGACUGCC [C3A A11U A26C],0.12
6,GGAAGAGGUCAACACAGCGUGGCAAAGUGGUUGUGGCUAGACUGCC [C3A C8G C31U],0.05
7,GGAAGAGCUCAACACAGCGUGGCCAAGUGGCUGUGGUUAGACUGCC [C3A A24C C37U],0.11
8,GGAAGAGCUCAUCACAGCUUGGCAAAGUGGCUGUGGCUAGACUCCC [C3A A12U G19U G44C],0.44
9,GGAAGAGCUGAACACAGCGUGGCAAAGUGGCUGUGGCUAGACUGCA [C3A C10G C46A],0.01
10,GGAAGAGCUCAACACAGCGUGGCAACGUGGCUGUGGCUAGACUCCC [C3A A26C G44C],0.7
11,GGAAGGGCUUAACACAGCGUGGCAAAGUGGCUGUUGAUAGACUGCC [C3A A6G C10U G35U C37A],0.2
12,GGAAGCGCCCAACACAGCGUGGCAAGGUGGCUGUGGCUAGACUGCC [C3A A6C U9C A26G],0.04
13,GGAAGAGCUCAGCACAGCGUGGCAAAGUGGCUGUGGCCAGACUGCC [C3A A12G U38C],0.03
14,GGAAGAGCUCACCAUAGCGUGGCAAAGUGGCUGUGGCUAGUCUGCA [C3A A12C C15U A41U C46A],0.05
15,GGAAGAGGUCUACACAGCGUGGCAAAGUGGCUGUGGCUAGACUGCC [C3A C8G A11U],0.05
16,GGAAGUGCUCAACACAGCGUGGCAAAGUGGCUGUGGCUAGACAGCC [C3A A6U U43A],0.13
17,GGAAGAGCUUAACCCAGCGUGGUAAACUGGCUGUGGCUAGACUGCC [C3A C10U A14C C23U G27C],0.02
18,GGAAGAGCUGUACACAGCGUGGCAAAGUAGCUGUGGCUAGAAUGCC [C3A C10G A11U G29A C42A],0.05
19,GGAAGAGCUCAACGCAGCGUAGCAGAGUGGCUUUGGCUAGACUGCC [C3A A14G G21A A25G G33U],0.03

row,Variant,self-cleavage
1,GGAAGAGCUCCACACAGCGUAUCAAAGUGGCUGUGGCUAGCCUGCC [C3A A11C G21A G22U A41C],0.06
2,GGAAGAGAUCAACAUAGUGUCGCAAAGUGGCUGUGGCUAGACUACC [C3A C8A C15U C18U G21C G44A],0.48
3,GGAAGAGCUCAACACCGCGGGGCAAAGUGGCUGUGGCUAGACUACC [C3A A16C U20G G44A],0.17
4,GGAAGAGCUGAACAUAGCGUGGAAAAGUGGCUGUGGUUUGACUGCC [C3A C10G C15U C23A C37U A39U],0.04
5,GGAAGAGCUCAUCAAAGCGUGGCAAAGUGGCUGUGGCUAGACUGCC [C3A A12U C15A],0.23
6,GGAAGGGCUCAAAACAGCGUGACAAAGUGGGUGUGGCUAUACUGCC [C3A A6G C13A G22A C31G G40U],0.09
7,GGAAGAGCUAAACACAGCAUGGCCAACUGGCUGUGGCUAGACUGCC [C3A C10A G19A A24C G27C],0.01
8,GGAAGAGCUCAACACUGUGUGGCAAAGUGGAUGUGGAUAGACUGCC [C3A A16U C18U C31A C37A],0.73
9,GGAAGAGUUCAACACAGCGUGGCAAAGUGGUUGUGGCUAGACUGCC [C3A C8U C31U],0.45
10,GGAAGAGCUCAACACCGCGUGGCAAAGUGGCUGUGCCUAGACUGCC [C3A A16C G36C],0.22
11,GGAAGAGCUCAACACAGCGUGGCACAGUGGCUUUGGCUAGACUGGC [C3A A25C G33U C45G],0.11
12,GGAAGAGCUCAACACAGCGUGGCAUAGUGGUUGUGGCUAGACUGCC [C3A A25U C31U],0
13,GGAAGAGCUCAACACGGCGUGGCAAAGUUGCUGUAGCUAGACUGCC [C3A A16G G29U G35A],0.13
14,GGAAGAGCUGAAAACAGCGUGGCAAAGAGGCUGUGGCUAGACUGCC [C3A C10G C13A U28A],0.03
15,GGAAGAGAUCAACACAGCGCGGCAAAGUGGCUGUAGCUAGAAUGCC [C3A C8A U20C G35A C42A],0.48
16,GGAAGAGCUCCACACAGCGUGGCAAAGUGGCUGUGGUUAGACUGCC [C3A A11C C37U],0.05
17,GGAAGAGCUCAUAACAGCGUGGCAAAGUGGCUGUGGCUAGACUGCC [C3A A12U C13A],0.55
18,GGAAGAGCUCAACUCAGCGUGGCAAAGUGGCGGUGGCUACACUUCA [C3A A14U U32G G40C G44U C46A],0.04
19,GGAAGAGUUCUACACAGCGUGGCAAAUAGUCUGUGGCCAGACUGCC [C3A C8U A11U G27U U28A G30U U38C],0.02

row,Variant,self-cleavage
1,GGAAGAGCUCCAAACAGCGUGGCAAAGUGGCUGUGGCUAGACUGCC [C3A A11C C13A],0.05
2,GGAAGAGCUCAUCACAGCGUGGAAAAGUGGCUGUGGCUAGGCUGCC [C3A A12U C23A A41G],0.5
3,GGAAGAGCUCCACCCAGCGCGGCAAAGUGGCUGUGGCUAGCCUGCC [C3A A11C A14C U20C A41C],0.03
4,GGAAGAGAUCAACACAGCGUGGCAACGUGGCUGUAGCUAGACUGCC [C3A C8A A26C G35A],2.88
5,GGAAGAGCUCAACACAGCGUGGCAAUGGGGCUGUGGCUAGACUGCC [C3A A26U U28G],0.84
6,GGAAGGGCUCAACACAGGGUGGCAAAGUGGCUGUGGCUAGACUGCC [C3A A6G C18G],0.07
7,GGAAGAGAUCAACGCAGCGUGGCAAAGUGGCUGUGGCUAGACUGCC [C3A C8A A14G],0.52
8,GGAAGCGCUCAACACAGCGUGGCAAAGUGGCUGCGGCUAGACUGCC [C3A A6C U34C],0.16
9,GGAAGAGUUCAACACAGCGUGGCAAAGUGGCUGUGCCUAGACUGCC [C3A C8U G36C],0.54
10,GGAAGAGUUCAACACAACAUGGCAAAGUGACUGUGGCUAGACUGCU [C3A C8U G17A G19A G30A C46U],0.11
11,GGAAGAGCUCAGCACACCGUGGCAAUCUGGCUGUGGCUAGAGUGCU [C3A A12G G17C A26U G27C C42G C46U],0.01
12,GGAAGAGUUUAACAGAGCGUGGCAAAGUGGCCGUGGCUAGACUGCC [C3A C8U C10U C15G U32C],0.12
13,GGAAGAGCUCAACUCAGCGUGGCAAAGUGGGUAUGGCUAGACUGCC [C3A A14U C31G G33A],0.24
14,GGAAGAGCUUACCACAGCGUGGCUAAGUGGCUAUGGCUAGACUGCC [C3A C10U A12C A24U G33A],0.02
15,GGAAGUGCUCAACAAGGCGUGGCAAAGUGGCUGUGUCCUGAGUGCC [C3A A6U C15A A16G G36U U38C A39U C42G],0.03
16,GGAAGAGCUCAACACAGCGUGGCAAGGUGGCUAUGGCUAGACUUCC [C3A A26G G33A G44U],0.13
17,GGAAGAGCUCAACACAGCGUGGCAGAGUGGCUGUGGCUAGACUUCC [C3A A25G G44U],1.14
18,GGAAGAGCUCAACACAGCGUGGCAUAGUGGCUGUGACUAGACUGCC [C3A A25U G36A],0.3
